Measurements from PMC4336329 (PLoS ONE, 2015).
Out of some 310,000 compounds screened, about 14,000 (4.5%) showed an effect of 50% or more. The effect is printed as a negative number. The list shows a part of the results.

The compounds below were run against human ether-à-go-go-related gene (hERG) potassium channel (human, UniProt Q12809) (assay: primary screen, population patch clamp on CHO cells stably expressing hERG).
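Also: peak tail current of the secondary pulse compared with the same well before compound.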

Sequence of human ether-à-go-go-related gene (hERG) potassium channel (Q12809 whole entry, looked up): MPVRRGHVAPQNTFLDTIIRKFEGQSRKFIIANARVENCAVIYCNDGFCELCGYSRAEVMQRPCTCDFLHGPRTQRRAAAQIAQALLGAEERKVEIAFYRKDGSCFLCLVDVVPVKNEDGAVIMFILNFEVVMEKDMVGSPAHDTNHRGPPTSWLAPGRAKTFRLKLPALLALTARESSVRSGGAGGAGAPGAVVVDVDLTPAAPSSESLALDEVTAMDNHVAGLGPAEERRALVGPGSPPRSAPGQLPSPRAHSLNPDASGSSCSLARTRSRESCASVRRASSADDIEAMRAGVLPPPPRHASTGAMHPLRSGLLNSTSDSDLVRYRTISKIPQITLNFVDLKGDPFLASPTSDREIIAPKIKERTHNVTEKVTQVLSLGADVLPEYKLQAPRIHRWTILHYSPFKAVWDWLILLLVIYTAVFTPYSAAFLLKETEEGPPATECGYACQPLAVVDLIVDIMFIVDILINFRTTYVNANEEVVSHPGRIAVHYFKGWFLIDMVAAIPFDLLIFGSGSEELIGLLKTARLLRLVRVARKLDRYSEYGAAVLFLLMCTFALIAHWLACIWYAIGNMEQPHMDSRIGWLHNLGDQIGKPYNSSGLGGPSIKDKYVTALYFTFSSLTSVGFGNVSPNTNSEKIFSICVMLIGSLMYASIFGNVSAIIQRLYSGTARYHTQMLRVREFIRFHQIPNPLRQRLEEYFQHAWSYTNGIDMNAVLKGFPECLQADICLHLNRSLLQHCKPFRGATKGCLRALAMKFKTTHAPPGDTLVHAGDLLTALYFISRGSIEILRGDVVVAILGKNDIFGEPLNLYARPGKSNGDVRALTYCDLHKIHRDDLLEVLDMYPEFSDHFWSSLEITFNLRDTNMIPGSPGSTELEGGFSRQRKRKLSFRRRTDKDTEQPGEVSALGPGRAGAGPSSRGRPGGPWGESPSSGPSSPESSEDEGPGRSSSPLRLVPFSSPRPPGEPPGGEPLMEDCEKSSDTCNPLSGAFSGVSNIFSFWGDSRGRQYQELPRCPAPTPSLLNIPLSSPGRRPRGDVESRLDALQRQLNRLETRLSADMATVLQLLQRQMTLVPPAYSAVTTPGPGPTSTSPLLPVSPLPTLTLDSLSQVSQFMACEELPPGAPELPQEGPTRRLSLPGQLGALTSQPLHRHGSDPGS

| SMILES | hERG current change (%, negative = inhibition) at 10uM |
| --- | --- |
| COc1ccc(NS(=O)(=O)c2ccc(O)c(C(=O)OCC(=O)N3CCCCC3)c2)cc1 | -7.02% |
| CC(NC(=O)c1ccccc1)C(=O)N/N=C/c1ccc(O)cc1 (centres unmarked) | 14.1% |
| CCOC(=O)c1ccc(N(CC(=O)NCC2CCCO2)C(=O)CCC(=O)Nc2cc(C)on2)cc1 (centres unmarked) | 9.99% |
| Cc1cc2n(n1)SC(Nc1ccc(F)c(Cl)c1)N2 (centres unmarked) | -7.58% |
| CCN1CCN(c2nc(-c3ccccc3)c3ccccc3n2)CC1 | -71.2% |
| CCOc1ncccc1C(=O)NCCc1ccc(Cl)cc1 | -5.75% |
| Cc1ccc2nc(-c3ccc(Br)cc3)cn2c1 | 10.2% |
| COc1ccccc1NC(=O)C1=C(C)Nc2nc(-c3cccs3)nn2C1c1cccc(O)c1 (centres unmarked) | -40.3% |
| O=C(NC1CCCCC1)NC1C2CC3CC(C2)CC1C3 (centres unmarked) | -6.14% |
| CC(Cc1n[nH]c(=S)o1)c1ccccc1 (centres unmarked) | 20.7% |
| CC(=O)N(C(C)=O)C1=C(C#N)C2(CCCCC2)Cc2ccccc21 | 2.51% |
| CN(CC(=O)O)S(=O)(=O)c1cccs1 | 4.48% |
| CCCn1cnc2c(=S)nc(N)[nH]c21 | 16.3% |
| CC(=O)N1CCN(CC(=O)Nc2ccccc2Sc2ccc(Cl)cc2)CC1 | -78% |
| O=C(c1ccc(CNS(=O)(=O)c2ccc(Br)cc2)cc1)N1CCCCCC1 | -21.6% |
| Cc1ccc(S(=O)(=O)N2CCN(C(C)C)CC2)cc1 | 19.3% |
| Cl.Fc1ccc(C(OCCN2CCCC2)c2ccc(Br)cc2)cc1 (centres unmarked) | -75.8% |
| CCc1cccc(N=c2c([N+](=O)[O-])nn(-c3ccc(Cl)cc3)n2O)c1 | -0.994% |
| CCN(CC)S(=O)(=O)c1ccc(N2CCCC2)c(C(=O)Nc2ccc(OC)c(Cl)c2)c1 | 18.2% |
| CCOC(=O)c1sc(C)c2c1NC1(CCCCCC1)NC2=O | 5% |
| CN(C)CCCNC(=S)NCc1ccc(Cl)cc1 | -26% |
| CC(=O)Nc1ccc(/C=N/NC(=O)c2cc3cc(C)ccc3nc2C)cc1 | -2.49% |
| O=C(CN(Cc1ccc2c(c1)OCO2)C(=O)CNC(=O)c1ccco1)NC1CCCCC1 | -7.83% |

| SMILES | hERG current change (%, negative = inhibition) at 10uM |
| --- | --- |
| Cc1nnc(SCSc2nnc(C)s2)s1 | 6.64% |
| Cn1c(=O)nc2n(Cc3ccccc3)c3cccc(Cl)c3cc-2c1=O | -4.14% |
| CC(C)(C)c1ccc(/C=N/NC(=O)c2ccccn2)cc1 | -4.68% |
| O=C(Nc1ccc(F)cc1)c1cccc(C(=O)Nc2ccc(F)cc2)c1 | -28.4% |
| COc1ccc(C)c2sc(NC(=O)c3cccc(N4C(=O)CCC4=O)c3)nc12 | -27.9% |
| NC(=O)CN1CCCC1c1ccc2c(c1)OCCO2 (centres unmarked) | 19.6% |
| C#CCNC(=O)C1=C[C@H](C2CC2)C[C@H](OCCCCO)O1 | 1.01% |
| Cc1ccc(CSC2=NCCN2C(=O)c2ccc(S(=O)(=O)N(C)C)cc2)cc1 | 13.6% |
| CN(C)c1ccc(C(=O)OCC(=O)NC2CCCCCC2)cc1 | -3.05% |
| Cc1nc2ccc(NC(=O)COc3cccc(F)c3)cc2s1 | 42.6% |
| CN(C)c1ccc(/C=N/OC(=O)Nc2ccccc2)cc1 | -2.98% |
| O=C(O)CCc1ccc(-c2cccs2)n1CCc1ccccc1 | 2% |
| O=C(COc1ccc(Cl)cc1)Nc1cnn(Cc2c(Cl)cccc2Cl)c1 | 22% |
| COc1ccc(N2CCN(C(C)C(=O)Nc3nnc(C)s3)CC2)cc1.Cl (centres unmarked) | -1.41% |
| CC(=O)NC(N(C#N)c1nc(Cl)nc(N(C)C)n1)C(Cl)(Cl)Cl (centres unmarked) | 13.1% |
| Cc1ccc(OCc2nc(-c3ccccn3)n[nH]2)cc1 | -15.7% |
| NC(=O)NC(CC(=O)Nc1cccnc1)c1cccc(Br)c1 (centres unmarked) | 12% |
| CCCCCCn1c(=O)c(Cc2ccccc2)c(O)c2ccccc21 | 4.61% |
| COc1ccc(CN2CCN(C(=O)c3cccc4ccccc34)CC2)c(OC)c1OC.O=C(O)C(=O)O | 11.9% |
| COc1ccc(C(=O)NC2CCN(CC(=O)Nc3cccc(OC)c3)CC2)cc1 | -25.4% |
| COc1ccccc1NC(=S)N1CCC(NC(=O)c2ccco2)CC1 | 10.6% |
| COc1cccc(/C=N/NC(=O)CNC(=O)c2ccc3c(c2)OCCO3)c1O | -0.701% |
| Cc1ccc(OC/C(=N\O)C(C)(C)C)c([N+](=O)[O-])c1 | -15.2% |

| SMILES | hERG current change (%, negative = inhibition) at 10uM |
| --- | --- |
| O=C(Nc1ccc(Cl)cc1)c1ccc(-c2ccccn2)s1 | 14.8% |
| CC(C)CN(CCCNC(=O)CN1C(=O)CSc2ccc(S(=O)(=O)N3CCOCC3)cc21)CC(C)C | 2.98% |
| CCCCN(C)CCCNC(=O)c1cc(-c2cccnc2)nc2ccccc12 | -60.1% |
| CCOc1ccc(CNCc2cccnc2)cc1 | -22.4% |
| COc1ccc(-c2nc(SCC(=O)N3CCOCC3)n[nH]2)cc1 | -4.25% |
| COc1ccccc1C1/C(=C(\O)c2ccc3c(c2)OCCO3)C(=O)C(=O)N1Cc1cccnc1 (centres unmarked) | 18.9% |
| O=C(Nc1ccc(Br)cc1)c1csc(-c2ccncc2)n1 | -9.16% |
| Cc1ccc(CSCc2nnc(SCC(=O)N3CCN(c4ccccc4)CC3)n2C)cc1 | -54% |
| CCn1c2ccccc2c2cc(NC(=S)N3CCOCC3)ccc21 | 4.55% |
| O=c1cc(-c2ccc([N+](=O)[O-])cc2)nc2cc(-c3ccc(F)cc3)[nH]n12 | 4.49% |
| CC(C)c1ccc(-c2nn(-c3ccccc3)cc2C(=O)NCC2CCCO2)cc1 (centres unmarked) | -1.18% |
| CC(C)C(NS(=O)(=O)c1ccc2c(c1)oc(=O)n2C)C(=O)N1CCN(c2ccccc2F)CC1 (centres unmarked) | -8.09% |
| CCOC(=O)C(Cc1ccccc1)NC(=O)CCC(=O)c1ccc(OC)cc1 (centres unmarked) | -0.95% |
| Cc1ccc2c(c1)NC(=O)c1cccc([N+](=O)[O-])c1CO2 | 11.2% |
| CCC(=O)N1CCCC(C(=O)c2ccc(-c3ccccc3)cc2)C1 (centres unmarked) | -19% |
| CCCn1nc(C(=O)OCn2nnc3ccccc3c2=O)c2ccccc2c1=O | 8.96% |
| CN1CCN(CCCNC(=O)c2ccc3c(Cl)c4c(nc3c2)CCCC4)CC1 | -6.81% |
| CCCCCCc1ccc(OC(=O)c2ccncc2)cc1 | 20.4% |
| Nc1nnc(CCN2CCCCC2)s1 | 4.42% |
| COc1ccc(N2C(=O)CC3(CCCC3)CC2=O)cc1 | 8.21% |
| CCc1ccc(N/C(SCc2ccccc2C)=C(/C#N)C(=O)NCc2ccco2)cc1 | 0.16% |
| Cc1cc(/C=C2/C(=O)N(C)C(=S)N2C)ccc1N1CCCC1 | 7.27% |
| O=C(Nc1ccnn1C1CCN(C/C=C/c2ccccc2)CC1)c1cccc(F)c1 | -70.9% |

| SMILES | hERG current change (%, negative = inhibition) at 10uM |
| --- | --- |
| Cc1ccc(NS(=O)(=O)c2ccc(C(=O)N3CCCCCC3)cc2)cc1 | -8.38% |
| COc1ccc(C(=O)NCCNC(=O)c2cnccn2)cc1 | 11.8% |
| COC(=O)Cc1ccc(NC(=S)N2CCN(c3ccccn3)CC2)cc1 | 10.2% |
| O=C(NC1CCCc2c1cnn2-c1cc(F)cc(F)c1)c1ccncc1 (centres unmarked) | -64.1% |
| CCOc1ccc(NC(=O)NC2(C(=O)NCc3ccco3)CCCCC2)cc1 | 15.8% |
| CC1(C)NS(=O)(=O)Oc2ccccc21 | 18.3% |
| Cl.NCCNc1ccc([N+](=O)[O-])cc1 | -6.16% |
| C=C1CCN(CC(=O)OC)S(=O)(=O)c2ccccc21 | 4.26% |
| CCCc1nnc(NC(=O)CCC(=O)N2CCC3(CC2)OCCO3)s1 | 24.6% |
| COc1ccc(-c2nc(N)nc(C)c2-c2ccc(Cl)cc2)c(O)c1 | 18.4% |
| CC1CC1C(=O)Nc1ccc(-c2ccccc2)cc1 (centres unmarked) | -4.57% |
| COc1ccc(-c2nc3ccccc3c(=O)n2CCCN2CCOCC2)cc1 | 6.17% |
| Cc1ccc(C(=O)NCCCn2ccnc2)o1 | 26.4% |
| Cc1cc(OCC(=O)c2cccc(C(F)(F)F)c2)n2cnnc2n1 | -28.9% |
| COc1ccccc1N1CCN(C2CCN(C(=O)c3cccs3)CC2)CC1 | -38.2% |
| COc1ccc(C2/C=C\CN(CC(C)(C)C)CC(=O)N2Cc2ccc(F)cc2)cc1 (centres unmarked) | 0.258% |
| COc1cccc(NC(=O)CCc2nc(-c3cccs3)no2)c1 | 0.12% |
| Cc1c(N=C2NN=C(c3c[nH]c4ccccc34)CS2)c(=O)n(-c2ccccc2)n1C | 6.94% |
| CCOC1=NN(c2ncc(C(F)(F)F)cc2Cl)C(=O)C1 | 12.1% |
| N#Cc1c(-c2ccccc2)ccn(Cc2ccccc2Cl)c1=O | -11% |
| Cc1ccccc1OC1C(=O)N(CC2CCCO2)C1c1ccc2c(c1)OCO2 (centres unmarked) | -55.8% |
| COC(=O)CC1C(=O)NCCN1C(=S)Nc1cccc(C(F)(F)F)c1 (centres unmarked) | 21.4% |
| CCN(CC)C(=O)c1ccccc1NC(=O)c1cccc(S(=O)(=O)N(CC)CC)c1 | -9.51% |
